# From PubChem BioAssay AID1346428 (National Center for Advancing Translational Sciences (NCATS), 2018)
# In all, about 48,000 compounds went through this assay and about 1,200 (2.5%) were called active. Not shown: some 2% with an inconclusive outcome.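 The calls were made as follows: active = activation of at least 60% and not above a set upper limit (about 1 call in 100 departs from these limits); inconclusive = activation of 40% to 60%, or above that upper limit; inactive = activation under 40%.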 Some of the results follow.
# Molecular target: Probable G-protein coupled receptor 32 (Homo sapiens) (UniProt O75388)
# Assay: qHTS for Agonists of Human Resolvin D1 Receptor DRV1; also: 0% is about no effect
# Details: CHO-K1 GPR32 beta-arrestin PathHunter luminescence, 90 min; at 76.9 µM; hits give high values; zero percent set by DMSO-only wells
# In short: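 Engineered CHO-K1 line co-expressing GPR32-ProLink and EA-beta-arrestin. Compound treatment lasted 90 min at 37 °C. Luminescence was recorded after 1 h with substrate at ambient temperature, relative to DMSO basal wells.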
# UniProt O75388, sequence (O75388 whole entry, looked up): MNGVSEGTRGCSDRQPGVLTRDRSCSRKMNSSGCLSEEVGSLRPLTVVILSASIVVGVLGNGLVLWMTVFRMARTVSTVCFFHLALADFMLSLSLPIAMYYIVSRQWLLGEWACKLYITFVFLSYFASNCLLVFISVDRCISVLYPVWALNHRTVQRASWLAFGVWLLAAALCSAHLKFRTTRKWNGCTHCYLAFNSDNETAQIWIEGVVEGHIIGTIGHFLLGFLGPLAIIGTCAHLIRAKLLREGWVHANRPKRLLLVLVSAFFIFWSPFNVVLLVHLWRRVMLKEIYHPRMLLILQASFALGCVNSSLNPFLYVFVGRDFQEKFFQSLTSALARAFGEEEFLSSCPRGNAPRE
row,Compound,activation
1,OC(C#CCN1CCCC1)(c1ccccc1)c1ccccc1,inactive: -7.52%
2,COc1cccc(C(=O)Nc2c3c(nn2-c2ccc(Cl)cc2)CS(=O)(=O)C3)c1,inactive: -6.62%
3,CCc1ccc(NC(=O)CCNS(=O)(=O)c2ccc3c(c2)CCCC(=O)N3)cc1,inactive: -5.41%
4,Cc1ccc(CNC(=O)c2cccc(-n3cnc4cccnc43)c2)cc1,inactive: 2.26%
5,CCOC(=O)c1scc(-c2ccccc2)c1S(=O)(=O)N1CCN(c2ccccc2OC)CC1,inactive: -30.5%
6,Cc1ccc(-c2nc3ccccn3c2Nc2ccc3c(c2)OCO3)o1,inactive: -4.29%
7,Cc1ccc(NC(=O)C(Cc2ccccc2)n2cccc2)cc1C (configuration not stated),inactive: 16%
8,COC(=O)c1ccccc1NC(=O)c1cc2c(-c3ccc(OC)c(OC)c3)nn(C)c2s1,inactive: 13.7%
9,C=CCC(CC=C)(CNC(=O)C(=O)Nc1ccc(C(=O)OCC)cc1)c1ccccc1,inactive: 1.89%
10,O=C(/C=C/c1cn(CC(O)CN2CCCCCC2)c2ccccc12)c1ccc(Br)cc1 (configuration not stated),active: 88%
11,COc1cccc(NS(=O)(=O)c2ccc3c(c2)CCCN3C(=O)C2CCC2)c1,inactive: 37.2%
12,Cc1cc2nc(-c3cccc(NC(=O)CSc4ccc(Cl)cc4)c3)oc2cc1C,inactive: -3.7%
13,CCSc1nnnn1-c1cccc(C(=O)O)c1,inactive: -1.68%
14,CCOC(=O)c1cc(-c2ccc(C)cc2)n(CC(=O)NC2CCCCCC2)c1C,inactive: -22.4%
15,CCCN(C(=O)c1cc2c(s1)-c1c(C)cccc1OC2)c1ccc(OCC)cc1,inactive: 5.14%
16,CC(C)c1ccc(Nc2nc3c(S(=O)(=O)c4ccc(Br)cc4)nnn3c3ccsc23)cc1,inactive: -7.36%
17,COc1ccc(-c2nn(-c3cccc([N+](=O)[O-])c3)c3c2cnc2cc4c(cc23)OCO4)cc1,inactive: -14.5%
18,COc1ccc(C2c3[nH]c4ccc(OC)cc4c3CCN2C(=O)Nc2ccccc2)cc1 (configuration not stated),inactive: -22.5%
19,Cc1cccc(-c2c3c(=O)n(C)c(=O)n(C)c3c3cnc4ccccc4n23)c1,inactive: -1.32%
20,O=C(Nc1c(Cl)cccc1Cl)c1cc(-c2cccc(O)c2)on1,active: 105%
21,Cc1c(NC(=O)Nc2ccc(C#N)cc2)c(=O)n(-c2ccccc2)n1C,inactive: -4.13%

row,Compound,activation
1,Cc1cccc(C(=O)Nc2ccc(OCc3cc(=O)n4c5c(sc4n3)CCCC5)cc2)c1,inactive: 5.48%
2,COc1ccccc1Nc1nn2c(=O)c3ccc(C(=O)NC(C)c4ccccc4)cc3nc2s1 (configuration not stated),inactive: 7.93%
3,Cc1ccc(NC(=O)Cn2cc(S(=O)(=O)c3ccccc3)c(=O)c3cc4c(cc32)OCO4)cc1,inactive: 1.91%
4,CCC(=O)Nc1sc2c(c1C(=O)Nc1cccc(C)c1)CCCC2,inactive: 5.81%
5,CCc1ccc(NC(=O)C2CCN(S(=O)(=O)c3c(C)noc3/C=C/c3cccs3)CC2)cc1,inactive: -19.1%
6,CCn1cc(C(=O)NCCOC)c(=O)c2cc(S(=O)(=O)N3CCOCC3)ccc21,inactive: -9.65%
7,Cc1cccc(NC(=O)CSc2cn(CC(=O)N3CCOCC3)c3ccccc23)c1,inactive: -9.42%
8,COc1ccc(S(=O)(=O)N(CCc2ccccc2)CC(=O)Nc2cc(C)ccc2C)cc1,inactive: 6.37%
9,CCOC(=O)C1=C(c2ccccc2)Nc2ncnn2C1c1ccc(Cl)cc1 (configuration not stated),inactive: -5.47%
10,O=C(CCC1N=C2c3ccccc3N=C(SCC(=O)Nc3ccccc3F)N2C1=O)NCc1cccs1 (configuration not stated),inactive: -12.5%
11,CCSc1nnc2c(n1)OC(c1ccc(OCC(=O)O)cc1)Nc1ccccc1-2 (configuration not stated),inactive: -28.6%
12,COc1cc(OC)cc(C(=O)Nc2ccc3oc(-c4ccc(Cl)cc4)nc3c2)c1,inactive: 12.3%
13,CCc1cccc(CC)c1NC(=O)c1c(C)oc2ccc(O)c(CN3CCOCC3)c12,inactive: -0.191%
14,COc1cc(Cl)c(C)cc1Nc1c2c(nc3ccccc13)CCC2,inactive: -9.11%
15,Cc1nc2ccc(S(=O)(=O)N(CC(=O)Nc3ccc(Cl)cc3)Cc3ccccc3)cc2s1,inactive: -9.87%
16,CCOc1ccccc1CNC(=O)CN1C(=O)CCn2nc(-c3cn(C)c4ccccc34)cc21,inactive: 28.9%
17,O=C(c1ccc2c(c1)N(Cc1cccc(Cl)c1)C(=O)c1ccccc1S2(=O)=O)N1CCC(Cc2ccccc2)CC1,inactive: -25%
18,COc1ccc(CNC(=O)c2ccc3c(c2)NC(=O)C(CS(=O)(=O)Cc2ccccc2Cl)N3)cc1 (configuration not stated),inactive: -20.7%
19,CCOC(=O)c1cccc(NS(=O)(=O)c2c(C)nc3sc(C)cn3c2=O)c1,inactive: -2.59%
20,CCOc1ccccc1N(C)C(=O)Cn1cnc2onc(-c3ccc(F)cc3)c2c1=O,inactive: -13.1%
21,COc1ccccc1-n1ncc2c(=O)[nH]c(SCC(=O)Nc3cccc(F)c3)nc21,inactive: -7.9%

row,Compound,activation
1,COc1ccc2c(CNCc3cccs3)c(C(=O)O)n(Cc3ccc(F)cc3Cl)c2c1,inactive: 1.35%
2,CSc1cccc(N2C(=O)N(CC(=O)NCc3ccccc3Cl)c3ccccc3S2(=O)=O)c1,active: 67.1%
3,Cc1cc(=O)n2c(C(=O)Nc3ccc(F)c(Cl)c3)c(C(=O)Nc3cccc(C)c3C)sc2n1,inactive: -0.695%
4,Cc1ccc(NC(=O)C(Cc2ccccc2)n2cccc2)c(C)c1 (configuration not stated),inactive: -20.1%
5,CCOc1ccc(C(=O)c2oc3ccccc3c2NC(=O)c2cc(-c3ccccc3)on2)cc1,inactive: 10.8%
6,Cc1cccc2sc(N(Cc3cccnc3)C(=O)Cc3ccccc3)nc12,inactive: -31.8%
7,Cc1nnc(SCc2ccccc2Cl)c2cc3occc3n12,inactive: -23%
8,CC(C)Oc1cccc(C(=O)Nc2ccc(-c3nc4cc(Cl)cc(Cl)c4o3)cc2)c1,inactive: 8.08%
9,Cc1cc(Nc2ccc(C(C)C)cc2)nc(-n2nc(C)cc2C)n1,inactive: -5.39%
10,CCCCCn1c(=N)c(S(=O)(=O)c2ccccc2)cc2c(=O)n3cccc(C)c3nc21,inactive: -6.57%
11,COc1cc(-c2noc(-c3ccc(NC4CCCCC4)c([N+](=O)[O-])c3)n2)cc(OC)c1OC,inactive: 2.24%
12,Cc1ccc(NC(=O)CSc2nc(-c3cccs3)cc(C(F)(F)F)n2)cc1C,inactive: -6.07%
13,COc1ccc(C(=O)Nc2nc3ccc(S(=O)(=O)N4CCCC4)cc3s2)cc1,inactive: 5.2%
14,COc1ccc(CNc2oc(COc3cccc(C)c3)nc2C#N)cc1,inactive: 8.28%
15,Cn1cc(S(=O)(=O)N2CCCC2)cc1C(=O)Nc1ccc(C(F)(F)F)cc1,inactive: 9.46%
16,O=C(Nc1ccc(NC(=O)c2ccc(Br)cc2)c(Cl)c1)c1ccc(Br)cc1,inactive: -2%
17,COc1ccccc1-c1nnc(C2CCN(S(=O)(=O)c3ccccc3)CC2)o1,inactive: 3.92%
18,COc1cccc2cc(-c3nnc(-c4ccc(Cl)cc4)o3)c(=O)oc12,inactive: -0.317%
19,CCc1nn(CC(=O)N2CCN(c3cccc(C(F)(F)F)c3)CC2)c(=O)c2cc3occc3n12,inactive: 6.23%
20,COc1cccc(-c2nc(CS(=O)(=O)CC(=O)NCCCN3CCN(C)CC3)c(C)o2)c1,inactive: -19.1%
21,COc1cccc(N2CCN(C(=O)Cn3cnc4onc(-c5ccc(F)cc5)c4c3=O)CC2)c1,inactive: 2.6%

row,Compound,activation
1,CCCCCn1c(=O)[nH]c2cc(C(=O)Nc3ccc(OC)c(OC)c3)ccc2c1=O,inactive: 2.29%
2,COc1ccc(C)cc1NC(=O)C1CCCN(S(=O)(=O)c2ccc3c(c2)oc(=O)n3C)C1 (configuration not stated),inactive: -7.39%
3,Cc1cccc(Cn2c(SCc3ccc(C(=O)NCCc4ccccc4)cc3)nc3cccnc32)c1,inactive: -24.9%
4,CC(=O)Nc1ccc(S(=O)(=O)N2CCN(c3ccccc3)CC2)cc1,inactive: 23.9%
5,CC(=O)Nc1cccc(NC(=O)C2(c3cccs3)CCOCC2)c1,inactive: 3.14%
6,Cc1ccc(SCc2nc(-c3ccc(C(=O)NCc4ccccc4Cl)cc3)oc2C)cc1,inactive: -15.3%
7,Cn1c(=O)c(=O)n(C)c2cc(N3CCCC3)c(NC(=O)c3ccc(C(C)(C)C)cc3)cc21,inactive: -10.6%
8,COc1cccc(CNC(=O)CN(c2ccc(C(C)C)cc2)S(=O)(=O)c2c(C)n[nH]c2C)c1,active: 70.8%
9,CCOC(=O)CC(=O)CSc1nc2ccccc2c(=O)n1CCc1ccccc1,inactive: -20.2%
10,COc1cccc(-c2nnc3n(CCc4ccccc4)c(=O)c4ccccc4n23)c1O,active: 77.1%
11,COC(=O)c1c(NC(=O)c2nc(SCc3ccc(C)cc3)ncc2Cl)sc2c1CCCC2,inactive: -7.76%
12,COc1ccc(NC(=O)Cn2c(=O)n(CCC(=O)NCCc3ccc(OC)c(OC)c3)c(=O)c3ccccc32)cc1Cl,inactive: 5.58%
13,CCCN1C(=O)CN(C2CCCCC2)C(=O)C1c1ccc(OC)c(OC)c1 (configuration not stated),inactive: 7.57%
14,CCCCCNS(=O)(=O)c1ccc(N2CCCCS2(=O)=O)cc1,inactive: 12.9%
15,O=C(NC1CC1)c1ccc(Cn2c(SCc3ccccc3F)nc3cccnc32)cc1,inactive: -1.95%
16,Cc1ccc2c(=O)cc(C(=O)Nc3ccc(S(=O)(=O)Nc4onc(C)c4C)cc3)oc2c1,inactive: -1.49%
17,COc1cccc([C@@H]2Nc3ccc(C(=O)O)cc3[C@@H]3C=CC[C@@H]32)c1OC,inactive: -13.1%
18,Cc1cccc(-n2ncc(C(=O)N3CCN(C(=O)c4ccco4)CC3)c2C2CCN(C(=O)OC(C)(C)C)CC2)c1,inactive: -10.5%
19,Cc1ccc2c(c1)c(=O)c(C(=O)c1ccncc1)cn2CC(=O)Nc1ccc(C(C)C)cc1,inactive: -6.87%
